From the supplement of paper PMC12217912
The other results are listed elsewhere or left out. Sequences were assembled here from the parent chain. Values near 0.05 are background.

B1: TEV protease; numbered along this chain (parent)
chain: MGESLFKGPRDYNPISSSICHLTNESDGHTTSLYGIGFGPFIITNKHLFRRNNGTLVVQSLHGVFKVKDTTTLQQHLVDGRDMIIIRMPKDFPPFPQKLKFREPQREERICLVTTNFQTKSMSSMVSDTSCTFPSGDGIFWKHWIQTKDGQCGSPLVSTRDGFIVGIHSASNFTNTNNYFTSVPKNFMELLTNQEAQQWVSGWRLNADSVLWGGHKVFMVKPEEPFQPVKEATQL

Variants of: B1
Experiment: raw area under fraction-flipped curve 0-4 h after induction (AUC4h, not background-subtracted), DNA-recorder readout of cleavage of the substrate (dimensionless); higher = more cleavage of the substrate by the protease variant
Details: temperature: 34 °C; time window: 0-4 h after rhamnose induction
Protocol: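 In vivo DNA recorder in E. coli TOP10(DE3) ΔrhaA at 34 °C. Each TEVp single-site mutant (parent TEVp 0) is paired with a single-site variant of the 7-mer TEVs (canonical ENLYFQ|S). The substrate sits between flexible linkers in a Bxb1-sfGFP-TEVs-SsrA fusion, so cleavage stabilises Bxb1 and speeds flipping of a recombination array, read by NGS. The value is the raw area under the fraction-flipped curve over 0-4 h after rhamnose induction (AUC4h), with ≥20 reads per time point. It is not background-subtracted; inactive controls average about 0.047.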
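Also: Bxb1 expression induced with 0.2% (w/v) L-rhamnose at OD600 near 0.5, cultures sampled hourly, flipped fraction per protease–substrate barcode pair counted by paired-end Illumina sequencing.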

## S182Y
  area with substrate ENAYFQS: 0.0458
  area with substrate ENCYFQS: 0.0443
  area with substrate ENDYFQS: 0.0602
  area with substrate ENEYFQS: 0.0572
  area with substrate ENMYFQS: 0.0443
  area with substrate ENQYFQS: 0.0602
  area with substrate ENRYFQS: 0.049
  area with substrate ENSYFQS: 0.0483
  area with substrate ENTYFQS: 0.0435
  area with substrate ENVYFQS: 0.0565

## R160L
  area with substrate ENAYFQS: 0.0553
  area with substrate ENGYFQS: 0.064
  area with substrate ENMYFQS: 0.0957
  area with substrate ENNYFQS: 0.0726
  area with substrate ENPYFQS: 0.0525
  area with substrate ENSYFQS: 0.0714
  area with substrate ENVYFQS: 0.078

## L190A
  area with substrate ENAYFQS: 0.0461
  area with substrate ENDYFQS: 0.0668
  area with substrate ENEYFQS: 0.0546
  area with substrate ENHYFQS: 0.0592
  area with substrate ENIYFQS: 0.139
  area with substrate ENKYFQS: 0.067
  area with substrate ENMYFQS: 0.0636
  area with substrate ENNYFQS: 0.0629
  area with substrate ENPYFQS: 0.0536
  area with substrate ENQYFQS: 0.0556
  area with substrate ENSYFQS: 0.0682
  area with substrate ENTYFQS: 0.0801
  area with substrate ENVYFQS: 0.0963
  area with substrate ENYYFQS: 0.0556

## G202D
  area with substrate ENAYFQS: 0.0672
  area with substrate ENCYFQS: 0.0583
  area with substrate ENEYFQS: 0.0666
  area with substrate ENFYFQS: 0.0598
  area with substrate ENGYFQS: 0.07
  area with substrate ENHYFQS: 0.0522
  area with substrate ENIYFQS: 0.0963
  area with substrate ENNYFQS: 0.0839
  area with substrate ENQYFQS: 0.0635
  area with substrate ENRYFQS: 0.0634
  area with substrate ENSYFQS: 0.0631
  area with substrate ENVYFQS: 0.0547

## G202T
  area with substrate ENAYFQS: 0.0531
  area with substrate ENCYFQS: 0.0412
  area with substrate ENDYFQS: 0.0523
  area with substrate ENIYFQS: 0.0817
  area with substrate ENQYFQS: 0.0707
  area with substrate ENRYFQS: 0.0787
  area with substrate ENTYFQS: 0.0548
  area with substrate ENWYFQS: 0.0636

## G202P
  area with substrate ENAYFQS: 0.0385
  area with substrate ENCYFQS: 0.0586
  area with substrate ENDYFQS: 0.0664
  area with substrate ENEYFQS: 0.0567
  area with substrate ENFYFQS: 0.058
  area with substrate ENHYFQS: 0.0611
  area with substrate ENKYFQS: 0.149
  area with substrate ENMYFQS: 0.0783
  area with substrate ENNYFQS: 0.053
  area with substrate ENQYFQS: 0.0539
  area with substrate ENSYFQS: 0.0561
  area with substrate ENTYFQS: 0.0729
  area with substrate ENVYFQS: 0.0676

## E189F
  area with substrate ENAYFQS: 0.0642
  area with substrate ENCYFQS: 0.0856
  area with substrate ENDYFQS: 0.0637
  area with substrate ENEYFQS: 0.0643
  area with substrate ENFYFQS: 0.0611
  area with substrate ENGYFQS: 0.0554
  area with substrate ENHYFQS: 0.0612
  area with substrate ENMYFQS: 0.0793
  area with substrate ENNYFQS: 0.0797
  area with substrate ENQYFQS: 0.0518
  area with substrate ENRYFQS: 0.0402
  area with substrate ENSYFQS: 0.0564
  area with substrate ENTYFQS: 0.0509
  area with substrate ENYYFQS: 0.0597

## F173N
  area with substrate ENAYFQS: 0.0647
  area with substrate ENDYFQS: 0.0421
  area with substrate ENGYFQS: 0.0607
  area with substrate ENPYFQS: 0.0619
  area with substrate ENQYFQS: 0.0671
  area with substrate ENRYFQS: 0.0518
  area with substrate ENSYFQS: 0.0472
  area with substrate ENTYFQS: 0.0645
  area with substrate ENWYFQS: 0.0038

## F173C
  area with substrate ENAYFQS: 0.064
  area with substrate ENCYFQS: 0.0735
  area with substrate ENDYFQS: 0.0802
  area with substrate ENEYFQS: 0.067
  area with substrate ENFYFQS: 0.0836
  area with substrate ENHYFQS: 0.0678
  area with substrate ENIYFQS: 0.0875
  area with substrate ENKYFQS: 0.0576
  area with substrate ENNYFQS: 0.0668
  area with substrate ENPYFQS: 0.069
  area with substrate ENQYFQS: 0.0578
  area with substrate ENSYFQS: 0.0461
  area with substrate ENTYFQS: 0.0687
  area with substrate ENVYFQS: 0.0815

## R204S
  area with substrate ENAYFQS: 0.0507
  area with substrate ENCYFQS: 0.0662
  area with substrate ENDYFQS: 0.058
  area with substrate ENEYFQS: 0.0226
  area with substrate ENFYFQS: 0.0686
  area with substrate ENGYFQS: 0.0694
  area with substrate ENHYFQS: 0.0771
  area with substrate ENIYFQS: 0.0816
  area with substrate ENMYFQS: 0.0851
  area with substrate ENNYFQS: 0.0519
  area with substrate ENQYFQS: 0.0604
  area with substrate ENRYFQS: 0.0582
  area with substrate ENSYFQS: 0.0686
  area with substrate ENTYFQS: 0.0682
  area with substrate ENVYFQS: 0.0888
  area with substrate ENYYFQS: 0.0676

## L211W
  area with substrate ENAYFQS: 0.0564
  area with substrate ENEYFQS: 0.0574
  area with substrate ENFYFQS: 0.057
  area with substrate ENIYFQS: 0.0998
  area with substrate ENNYFQS: 0.0704
  area with substrate ENRYFQS: 0.0754
  area with substrate ENWYFQS: 0.0269

## L211A
  area with substrate ENAYFQS: 0.0481
  area with substrate ENDYFQS: 0.0626
  area with substrate ENEYFQS: 0.0627
  area with substrate ENGYFQS: 0.0572
  area with substrate ENMYFQS: 0.0494
  area with substrate ENNYFQS: 0.0494
  area with substrate ENQYFQS: 0.0601

## N175H
  area with substrate ENAYFQS: 0.0704
  area with substrate ENEYFQS: 0.066
  area with substrate ENFYFQS: 0.0269
  area with substrate ENHYFQS: 0.0754
  area with substrate ENNYFQS: 0.114
  area with substrate ENRYFQS: 0.0571
  area with substrate ENTYFQS: 0.0628

## G162I
  area with substrate ENAYFQS: 0.0545
  area with substrate ENCYFQS: 0.0589
  area with substrate ENEYFQS: 0.0592
  area with substrate ENFYFQS: 0.0571
  area with substrate ENHYFQS: 0.0464
  area with substrate ENKYFQS: 0.0589
  area with substrate ENQYFQS: 0.0646
  area with substrate ENRYFQS: 0.0466
  area with substrate ENTYFQS: 0.0616
  area with substrate ENVYFQS: 0.0559

## G162W
  area with substrate ENAYFQS: 0.0576
  area with substrate ENDYFQS: 0.0446
  area with substrate ENFYFQS: 0.0601
  area with substrate ENHYFQS: 0.0644
  area with substrate ENNYFQS: 0.0501
  area with substrate ENQYFQS: 0.0599
  area with substrate ENRYFQS: 0.0544
  area with substrate ENSYFQS: 0.0551
  area with substrate ENTYFQS: 0.0669
  area with substrate ENVYFQS: 0.0716

## G162K
  area with substrate ENAYFQS: 0.0589
  area with substrate ENCYFQS: 0.0832
  area with substrate ENEYFQS: 0.0459
  area with substrate ENKYFQS: 0.0559
  area with substrate ENQYFQS: 0.0513
  area with substrate ENRYFQS: 0.0689
  area with substrate ENTYFQS: 0.0479
  area with substrate ENVYFQS: 0.0626
